# Hit rate of the full screen: of about 410,000 compounds, about 6,400 (1.6%) were called active. This list was built around the results that the source calls inconclusive (neither active nor inactive); the mix of calls is not that of the screen. Calls follow the shape of the dose curve; as a rule, active = well fitted inhibition curve with a large enough effect; inconclusive = small, poorly fitted or top-dose-only effect; inactive = no such curve, though single readings can be large or run the other way. No potency is given beside an inconclusive call; the fits are too rough.
# Target: Glucagon-like peptide 1 receptor (Homo sapiens) (UniProt P43220)
# Test: qHTS of GLP-1 Receptor Inverse Agonists (Inhibition Mode); also: nearly all actives have a fitted effect of over 55% in size
# Conditions: HEK293 GLP-1R CRE-luciferase, luminescence, 24 h, GLP-1R form is constitutively active; activity change, negative = inhibition: at 38.3 µM (top of the series) unless noted
# How it was run: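 Using stably transfected HEK293 (constitutively active GLP-1R, cAMP-luciferase reporter), compounds were incubated 24 hr and luciferase measured by luminescence.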
# % is scaled to controls: 0 for no effect and ±100 for the full control effect; potency is read from the fitted curve at half-maximal effect; tags tell the direction and shape of the fitted curve.
# UniProt P43220, sequence (P43220 whole entry, looked up): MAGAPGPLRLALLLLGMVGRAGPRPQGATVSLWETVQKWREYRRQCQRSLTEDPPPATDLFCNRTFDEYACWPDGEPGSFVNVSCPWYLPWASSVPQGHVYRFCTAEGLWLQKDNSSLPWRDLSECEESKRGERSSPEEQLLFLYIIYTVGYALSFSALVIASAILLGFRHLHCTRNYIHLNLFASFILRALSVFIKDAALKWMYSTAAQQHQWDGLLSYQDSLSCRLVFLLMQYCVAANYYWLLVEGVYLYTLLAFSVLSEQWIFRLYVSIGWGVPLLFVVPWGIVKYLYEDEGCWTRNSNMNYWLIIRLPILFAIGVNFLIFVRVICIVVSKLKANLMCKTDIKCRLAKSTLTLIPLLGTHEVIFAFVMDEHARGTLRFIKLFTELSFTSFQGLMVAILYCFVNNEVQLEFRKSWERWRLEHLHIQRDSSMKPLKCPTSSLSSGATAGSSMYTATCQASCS
SMILES,Potency,"activity change, negative = inhibition"
CC1(NC(=O)CC(c2ccccc2)(c2ccccc2)c2ccccc2)CCN(CCCc2ccccc2)C1=O (stereo not drawn),inactive,–
CN(C)CCCN(C(=O)C1COc2ccccc2O1)c1nc2cc3c(cc2s1)OCO3 (stereo not drawn),"inconclusive [inhibitor, single point]",–
COc1ccc(N2C(=O)CSC2c2ccccc2F)c(OC)c1 (stereo not drawn),–,inconclusive: -42.7% [inhibitor]
Cc1cc([N+](=O)[O-])ccc1NC(=S)NC(=O)Cc1ccccc1,"inconclusive [inhibitor, partial curve, poor fit]",–
CC(Nc1nc(N2CCCC2)nc2ccccc12)c1ccccc1 (stereo not drawn),"inconclusive [inhibitor, partial curve, poor fit]",–
CC(C)C[C@@H](CN1CCCC1CN1C(=S)NC[C@@H]1Cc1ccccc1)N1C[C@H](Cc2ccc(O)cc2)N(CC2CCCCC2)C1=S (stereo partly drawn),"inconclusive [inhibitor, single point]",–
COc1cccc(NC(=O)C(=O)NCCC2CCCCN2S(=O)(=O)c2cccs2)c1 (stereo not drawn),"inconclusive [inhibitor, single point]",–
O=C(Nc1nccs1)c1nc[nH]c1C(=O)NCc1ccccc1,"inconclusive [inhibitor, full curve, poor fit]",–
CCc1nc2ccccc2n1CCCCOc1ccccc1C,"inconclusive [inhibitor, single point]",–
C=CCNC(=S)NCCCCC1NC(=S)N(CC=C)C1=O (stereo not drawn),inactive,–
CCC1Oc2ccc(C)cc2N(CC(=O)NCc2cccs2)C1=O (stereo not drawn),"inconclusive [inhibitor, single point]",–
CN(C)CC(O)COC(c1ccc(Cl)cc1)c1ccc(Cl)cc1 (stereo not drawn),"inconclusive [inhibitor, partial curve, poor fit]",–
COc1cc(NCCCC(C)N)c2ncccc2c1 (stereo not drawn),"inconclusive [inhibitor, partial curve, poor fit]",–
Cc1cccc(N2CCN(C(=O)CCCn3c(=O)c4cccn4c4cccnc43)CC2)c1C,"inconclusive [inhibitor, partial curve, poor fit]",–
Cc1ccc(C)c(CN2CCCN(Cc3cc(C)ccc3C)S2(=O)=O)c1,–,inconclusive: -42.7% [inhibitor]
CC(=O)c1cccc(Nc2nc(-c3cccc([N+](=O)[O-])c3)cs2)c1,"inconclusive [inhibitor, partial curve, poor fit]",–
COc1ccc(CNC(=O)CCSCc2cccc(Cl)c2)cc1,"inconclusive [inhibitor, single point]",–
COC(=O)C(NC(=O)c1ccco1)(Nc1ccc(Br)cn1)C(F)(F)F (stereo not drawn),"inconclusive [inhibitor, partial curve, poor fit]",–
Cc1ccc2c(c1)NC(=O)C(CC(=O)NCCCN1CCN(c3cc(Cl)ccc3C)CC1)O2 (stereo not drawn),"inconclusive [inhibitor, partial curve, poor fit]",–
CCCn1c(SCC(O)c2cccc(OC)c2)nc2ccccc21 (stereo not drawn),inactive,–
O=C1C(Nc2ccccc2)=C(N2CCCCC2)C(=O)c2ccccc21,"inconclusive [inhibitor, single point]",–

SMILES,Potency,"activity change, negative = inhibition"
Cc1ccc(CN2CCC[C@]3(N[C@H](c4ccccc4)[C@@H]4C(=O)N(Cc5ccccc5)C(=O)[C@@H]43)C2=O)cc1,"inconclusive [inhibitor, single point]",–
COc1ccc(C(=O)/C=C/c2ccc(OC)c(CN3CCOCC3)c2)cc1,"inconclusive [inhibitor, partial curve, poor fit]",–
O=S1(=O)Nc2c(ccc3cccnc23)-c2ccccc21,"inconclusive [inhibitor, full curve, poor fit]",–
Cc1cc(=O)[nH]c(SCC(=O)N2CCCC2)n1,inactive,–
COc1ccc(-c2[nH]ncc2/C=N\NS(=O)(=O)c2ccccc2)cc1OC,inactive,–
COc1cccc(-c2noc(C3CCCN(S(=O)(=O)c4cccc(Cl)c4C)C3)n2)c1 (stereo not drawn),"inconclusive [inhibitor, single point]",–
COc1ccc(CNC[C@@H](CCCCN(C)Cc2ccc(OC)cc2)N2C[C@H](c3ccccc3)N(CCc3ccc(Cl)c(Cl)c3)C(=O)C2=O)cc1,"inconclusive [inhibitor, partial curve, poor fit]",–
CCCC(O)c1nc2ccccc2n1CCCCOc1ccc(OC)cc1 (stereo not drawn),"inconclusive [inhibitor, single point]",–
Cc1onc(-c2ccccc2)c1C(=O)Nc1nc(-c2ccccc2)cs1,"inconclusive [inhibitor, full curve, poor fit]",–
Cc1ccc(CSc2ccc(-c3ccco3)nn2)cc1,inactive,–
C/C(=N\Nc1ccc([N+](=O)[O-])cc1)c1cccc(N)c1,"inconclusive [inhibitor, single point]",–
CC(C)(C#N)NC(=O)C1CCCN1S(=O)(=O)c1ccc2ccccc2c1 (stereo not drawn),"inconclusive [inhibitor, full curve]",–
CCOC(=O)c1c(C)[nH]c(C)c1S(=O)(=O)N1CCC(C(=O)NCc2ccc(C)cc2)CC1,inactive,–
Cc1cccc(-n2cnc(C(=O)NC3CCCCCC3)c2)n1,inactive,–
COc1ccc(OC)c(NC(=O)C2(C)CCN2C(=O)C2(c3ccccc3)CCCC2)c1 (stereo not drawn),"inconclusive [inhibitor, partial curve, poor fit]",–
O=C(CN1C(=O)C(=O)N(CCC2=CCCCC2)C1=O)c1c[nH]c2ccccc12,"inconclusive [inhibitor, partial curve, poor fit]",–
Clc1cccc(CN2C3=NCCCN3c3ccccc32)c1,inactive,–
Cc1ccccc1NC(=O)N1CCCC(c2nc(-c3ccc(C(C)C)cc3)no2)C1 (stereo not drawn),"inconclusive [inhibitor, single point]",–
CN(C)C(=O)CSc1nc(-c2ccccc2)c(-c2ccccc2)o1,"inconclusive [inhibitor, single point]",–
CCN1C(C(=O)c2ccccc2)=C(OC(=O)C(C)C)c2ccccc2S1(=O)=O,"inconclusive [inhibitor, single point]",–
CCC[C@@H](CN1CCC[C@H]1CN1C(N)=NC[C@H]1CC(C)C)N1C[C@@H](Cc2ccccc2)N(CCc2ccc(Cl)c(Cl)c2)C1=N,inactive,–

SMILES,Potency,"activity change, negative = inhibition"
O=[N+]([O-])c1cccc(COc2ncnc3cc([N+](=O)[O-])ccc23)c1,"inconclusive [inhibitor, full curve]",–
O=C(CCNS(=O)(=O)c1ccc2c(c1)CCN2C(=O)C1CC1)N1CCN(c2ccc(F)cc2)CC1,inactive,–
C/C=C(/C)C(=O)O[C@@H]1c2c(ccc3ccc(=O)oc23)OC(C)(C)[C@@H]1OC(=O)/C(C)=C\C,"inconclusive [inhibitor, partial curve, poor fit]",–
O=C(Nc1ccccc1)c1nc2ccccc2s1,"inconclusive [inhibitor, single point]",–
Cc1nn(C)cc1/C=N/NC(=S)Nc1ccc(Cl)cc1Cl,inactive,–
Cc1cc(C)c(OCCn2ccnc2)c(C)c1,"inconclusive [inhibitor, single point]",–
Cc1cc(C)c2c(CC(=O)Nc3ccc(S(=O)(=O)Nc4ncccn4)cc3)coc2c1,inactive,–
CC1CC(C)CN(CCCNS(=O)(=O)c2ccc3c(c2)CCN3C(=O)C2CC2)C1 (stereo not drawn),"inconclusive [inhibitor, partial curve, poor fit]",–
Cc1ccc(C2CC(c3ccccc3)=NN2C(=S)Nc2ccccc2)o1 (stereo not drawn),"inconclusive [inhibitor, partial curve, poor fit]",–
CCOC(=O)CSc1nc2c(sc(=S)n2-c2ccccc2OC)c(=O)n1-c1ccccc1OC,–,inconclusive: -32% [inhibitor]
CCN(CC)C(=O)c1sc(NC(=O)c2cc(-c3ccc(C)s3)nc3ccccc23)c(C(=O)OC)c1C,"inconclusive [inhibitor, partial curve]",–
COc1ccccc1CNC(=O)C1CCC(CNS(=O)(=O)c2ccc(C)cc2)CC1 (stereo not drawn),"inconclusive [inhibitor, single point]",–
Cc1cc(C)cc(NC(=O)COC(=O)CC2CCCC2)c1,"inconclusive [inhibitor, single point]",–
COc1cccc(/C=N/NC(=O)CN2CC(c3ccccc3)CC2=O)c1O (stereo not drawn),"inconclusive [inhibitor, single point]",–
O=C(Cn1nc(C(F)(F)F)c2c1CCC2)Nc1ccc(Cl)cc1,"inconclusive [inhibitor, single point]",–
CCCCN(C(=O)CCNC(=O)NC12CC3CC(CC(C3)C1)C2)c1c(N)n(CCCC)c(=O)[nH]c1=O,"inconclusive [inhibitor, single point]",–
O=C(Nc1cccc(-c2nnc(-c3ccccc3)o2)c1)c1ccc(Br)o1,"inconclusive [inhibitor, partial curve, poor fit]",–
Cc1ccc2cc(CN(CCN(C)C)C(=O)Nc3ccc(Cl)cc3)c(=O)[nH]c2c1,inactive,–
COC(=O)c1ccccc1NC(=O)CSc1nc(-c2ccco2)cc(C(F)(F)F)n1,"inconclusive [inhibitor, partial curve, poor fit]",–
c1ccc2c(c1)NCCS2,"inconclusive [inhibitor, single point]",–
CC(CNC(=O)c1cccs1)c1ccc([N+](=O)[O-])cc1 (stereo not drawn),"inconclusive [inhibitor, partial curve, poor fit]",–

# From PubChem BioAssay AID624417 (National Center for Advancing Translational Sciences (NCATS), 2012)
